# From the supplement of paper PMC8728848
# The other results are listed elsewhere or left out.
# Assays:
# Test in all cases: glycan array binding signal (z-score within array); higher = stronger binding
# Details in all cases: glycan notation: IUPAC condensed, linker removed
# [1] = target: Neu5Ac(a2-3)Gal(b1-3)[Fuc(a1-4)]GlcNAc(b1-3)Gal(b1-3)[Fuc(a1-4)]GlcNAc
# Procedure, shortened: (§1)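 From the Consortium for Functional Glycomics database, 3228 arrays were curated, keeping only those whose protein sequence was available. Binding is given as a within-array Z-score averaged across arrays sharing a protein sequence and across linkers. Negative Z-scores can be read as non-binding.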
# [2] = target: Neu5Ac(a2-3)Gal(b1-3)[Fuc(a1-4)]GlcNAc(b1-3)Gal(b1-4)[Fuc(a1-3)]GlcNAc
# Procedure, shortened: as §1
# [3] = target: Neu5Ac(a2-3)Gal(b1-3)[GlcNAc(b1-6)]GalNAc
# Procedure, shortened: as §1
# [4] = target: Neu5Ac(a2-3)Gal(b1-3)[Neu5Ac(a2-3)Gal(b1-4)]GlcNAc
# Procedure, shortened: as §1
# [5] = target: Neu5Ac(a2-3)Gal(b1-3)[Neu5Ac(a2-6)]GalNAc
# Procedure, shortened: as §1
# [6] = target: Neu5Ac(a2-3)Gal(b1-3)[Neu5Ac(a2-6)]GlcNAc(b1-3)[Fuc(a1-3)[Gal(b1-4)]GlcNAc(b1-6)]Gal(b1-4)Glc
# Procedure, shortened: as §1
# [7] = target: Neu5Ac(a2-3)Gal(b1-3)]Neu5Ac(a2-3)Gal(b1-4)]GlcNAc
# Procedure, shortened: as §1
# Neu5Ac(a2-3)Gal(b1-4)Glc = target: Neu5Ac(a2-3)Gal(b1-4)Glc
# Procedure, shortened: as §1
# [8] = target: Neu5Ac(a2-3)Gal(b1-4)GlcNAc
# Procedure, shortened: as §1
# [9] = target: Neu5Ac(a2-3)Gal(b1-4)GlcNAc(b1-2)Man
# Procedure, shortened: as §1
# [10] = target: Neu5Ac(a2-3)Gal(b1-4)GlcNAc(b1-2)Man(a1-3)[GlcNAc(b1-2)Man(b1-4)GlcNAc(b1-2)Man(a1-6)]Man(b1-4)GlcNAc(b1-4)GlcNAc
# Procedure, shortened: as §1
# [11] = target: Neu5Ac(a2-3)Gal(b1-4)GlcNAc(b1-2)Man(a1-3)[GlcNAc(b1-4)][Neu5Ac(a2-3)Gal(b1-4)GlcNAc(b1-2)Man(a1-6)]Man(b1-4)GlcNAc(b1-4)GlcNAc
# Procedure, shortened: as §1
# [12] = target: Neu5Ac(a2-3)Gal(b1-4)GlcNAc(b1-2)Man(a1-3)[Neu5Ac(a2-3)Gal(b1-4)GlcNAc(b1-2)Man(a1-6)]Man(b1-4)GlcNAc(b1-4)GlcNAc
# Procedure, shortened: as §1
# [13] = target: Neu5Ac(a2-3)Gal(b1-4)GlcNAc(b1-2)Man(a1-3)[Neu5Ac(a2-3)Gal(b1-4)GlcNAc(b1-2)Man(a1-6)]Man(b1-4)GlcNAc(b1-4)[Fuc(a1-6)]GlcNAc
# Procedure, shortened: as §1
# [14] = target: Neu5Ac(a2-3)Gal(b1-4)GlcNAc(b1-2)Man(a1-3)[Neu5Ac(a2-6)Gal(b1-4)GlcNAc(b1-2)Man(a1-6)]Man(b1-4)GlcNAc(b1-4)GlcNAc
# Procedure, shortened: as §1
# [15] = target: Neu5Ac(a2-3)Gal(b1-4)GlcNAc(b1-2)[Neu5Ac(a2-3)Gal(b1-4)GlcNAc(b1-4)]Man(a1-3)[GlcNAc(b1-4)][Neu5Ac(a2-3)Gal(b1-4)GlcNAc(b1-2)[Neu5Ac(a2-3)Gal(b1-4)GlcNAc(b1-6)]Man(a1-6)]Man(b1-4)GlcNAc(b1-4)GlcNAc
# Procedure, shortened: as §1
# [16] = target: Neu5Ac(a2-3)Gal(b1-4)GlcNAc(b1-2)[Neu5Ac(a2-3)Gal(b1-4)GlcNAc(b1-4)]Man(a1-3)[GlcNAc(b1-4)][Neu5Ac(a2-3)Gal(b1-4)GlcNAc(b1-4)Man(a1-6)]Man(b1-4)GlcNAc(b1-4)GlcNAc
# Procedure, shortened: as §1
# [17] = target: Neu5Ac(a2-3)Gal(b1-4)GlcNAc(b1-2)[Neu5Ac(a2-3)Gal(b1-4)GlcNAc(b1-6)]Man(a1-6)[Neu5Ac(a2-3)Gal(b1-4)GlcNAc(b1-2)Man(a1-3)][GlcNAc(b1-4)]Man(b1-4)GlcNAc(b1-4)GlcNAc
# Procedure, shortened: as §1
# [18] = target: Neu5Ac(a2-3)Gal(b1-4)GlcNAc(b1-3)Gal
# Procedure, shortened: as §1
# [19] = target: Neu5Ac(a2-3)Gal(b1-4)GlcNAc(b1-3)Gal(b1-3)GlcNAc
# Procedure, shortened: as §1
# [20] = target: Neu5Ac(a2-3)Gal(b1-4)GlcNAc(b1-3)Gal(b1-4)GlcNAc
# Procedure, shortened: as §1
# [21] = target: Neu5Ac(a2-3)Gal(b1-4)GlcNAc(b1-3)Gal(b1-4)GlcNAc(b1-2)Man(a1-3)[Neu5Ac(a2-3)Gal(b1-4)GlcNAc(b1-3)Gal(b1-4)GlcNAc(b1-2)Man(a1-6)]Man(b1-4)GlcNAc(b1-4)GlcNAc
# Procedure, shortened: as §1
# [22] = target: Neu5Ac(a2-3)Gal(b1-4)GlcNAc(b1-3)Gal(b1-4)GlcNAc(b1-3)Gal(b1-4)GlcNAc
# Procedure, shortened: as §1
# [23] = target: Neu5Ac(a2-3)Gal(b1-4)GlcNAc(b1-3)Gal(b1-4)GlcNAc(b1-3)Gal(b1-4)GlcNAc(b1-2)Man(a1-3)[Neu5Ac(a2-3)Gal(b1-4)GlcNAc(b1-3)Gal(b1-4)GlcNAc(b1-3)Gal(b1-4)GlcNAc(b1-2)Man(a1-6)]GalNAc
# Procedure, shortened: as §1
# [24] = target: Neu5Ac(a2-3)Gal(b1-4)GlcNAc(b1-3)Gal(b1-4)GlcNAc(b1-3)GalNAc
# Procedure, shortened: as §1
# [25] = target: Neu5Ac(a2-3)Gal(b1-4)GlcNAc(b1-3)Gal(b1-4)GlcNAc(b1-3)[Neu5Ac(a2-3)Gal(b1-4)GlcNAc(b1-3)Gal(b1-4)GlcNAc(b1-6)]GalNAc
# Procedure, shortened: as §1
# [26] = target: Neu5Ac(a2-3)Gal(b1-4)GlcNAc(b1-3)Gal(b1-4)GlcNAc(b1-6)[Gal(b1-3)]GalNAc
# Procedure, shortened: as §1
# [27] = target: Neu5Ac(a2-3)Gal(b1-4)GlcNAc(b1-3)Gal(b1-4)[Fuc(a1-3)]GlcNAc
# Procedure, shortened: as §1
# [28] = target: Neu5Ac(a2-3)Gal(b1-4)GlcNAc(b1-3)GalNAc
# Procedure, shortened: as §1
# [29] = target: Neu5Ac(a2-3)Gal(b1-4)GlcNAc(b1-3)[Neu5Ac(a2-3)Gal(b1-4)GlcNAc(b1-6)]GalNAc
# Procedure, shortened: as §1
# [30] = target: Neu5Ac(a2-3)Gal(b1-4)GlcNAc(b1-6)GalNAc
# Procedure, shortened: as §1
# [31] = target: Neu5Ac(a2-3)Gal(b1-4)GlcNAc(b1-6)[Gal(b1-3)]GalNAc
# Procedure, shortened: as §1
# [32] = target: Neu5Ac(a2-3)Gal(b1-4)GlcNAc(b1-6)[Neu5Ac(a2-3)Gal(b1-3)]GalNAc
# Procedure, shortened: as §1
# [33] = target: Neu5Ac(a2-3)Gal(b1-4)GlcNAc6S
# Procedure, shortened: as §1
# [34] = target: Neu5Ac(a2-3)Gal(b1-4)[Fuc(a1-3)]GlcNAc
# Procedure, shortened: as §1
# [35] = target: Neu5Ac(a2-3)Gal(b1-4)[Fuc(a1-3)]GlcNAc(b1-2)Man
# Procedure, shortened: as §1
# [36] = target: Neu5Ac(a2-3)Gal(b1-4)[Fuc(a1-3)]GlcNAc(b1-3)Gal
# Procedure, shortened: as §1
# [37] = target: Neu5Ac(a2-3)Gal(b1-4)[Fuc(a1-3)]GlcNAc(b1-3)Gal(b1-4)GlcNAc
# Procedure, shortened: as §1
binder,measurement,setting,value
MGL6A (Homo sapiens) (protein) MTRTYENFQYLENKVKVQGFKNGPLPLQSLLQRLCSGPCHLLLSLGLGLLLLVIICVVGFQNSKFQRDLVTLRTDFSNFTSNTVAEIQALTSQGSSLEETIASLKAEVEGFKQERQAVHSEMLLRVQQLVQDLKKLTCQVATLNNNGEEASTEGTCCPVNWVEHQDSCYWFSHSGMSWAEAEKYCQLKNAHLVVINSREEQNFVQKYLGSAYTWMGLSDPEGAWKWVDGTDYATGFQNWKPGQPDDWQGHGLGGGEDCAHFHPDGRWNDDVCQRPYHWVCEAGLGQTSQESH,glycan array binding signal (z-score),[1],-0.204
same,glycan array binding signal (z-score),[2],-0.37
same,glycan array binding signal (z-score),[3],-1.57
same,glycan array binding signal (z-score),[4],-0.404
same,glycan array binding signal (z-score),[5],-0.28
same,glycan array binding signal (z-score),[6],-0.237
same,glycan array binding signal (z-score),[7],-0.152
same,glycan array binding signal (z-score),Neu5Ac(a2-3)Gal(b1-4)Glc,-0.45
same,glycan array binding signal (z-score),[8],-0.278
same,glycan array binding signal (z-score),[9],-0.196
same,glycan array binding signal (z-score),[10],-0.467
same,glycan array binding signal (z-score),[11],-0.26
same,glycan array binding signal (z-score),[12],-0.206
same,glycan array binding signal (z-score),[13],-0.229
same,glycan array binding signal (z-score),[14],-0.248
same,glycan array binding signal (z-score),[15],-0.278
same,glycan array binding signal (z-score),[16],-0.268
same,glycan array binding signal (z-score),[17],-0.272
same,glycan array binding signal (z-score),[18],-0.71
same,glycan array binding signal (z-score),[19],-0.277
same,glycan array binding signal (z-score),[20],-0.328
same,glycan array binding signal (z-score),[21],-1.08
same,glycan array binding signal (z-score),[22],-0.343
same,glycan array binding signal (z-score),[23],-0.191
same,glycan array binding signal (z-score),[24],-0.254
same,glycan array binding signal (z-score),[25],-0.287
same,glycan array binding signal (z-score),[26],-0.286
same,glycan array binding signal (z-score),[27],-0.31
same,glycan array binding signal (z-score),[28],-0.263
same,glycan array binding signal (z-score),[29],-0.447
same,glycan array binding signal (z-score),[30],3.89
same,glycan array binding signal (z-score),[31],-0.214
same,glycan array binding signal (z-score),[32],-0.364
same,glycan array binding signal (z-score),[33],-0.299
same,glycan array binding signal (z-score),[34],-0.311
same,glycan array binding signal (z-score),[35],-0.265
same,glycan array binding signal (z-score),[36],-0.287
same,glycan array binding signal (z-score),[37],-0.233
